Source: PubChem BioAssay AID588591 (National Center for Advancing Translational Sciences (NCATS), 2011)
Screen size: about 390,000 compounds; about 4,700 (1.2%) were called active. This list was built around the results that the source calls inconclusive (neither active nor inactive); the mix of calls is not that of the screen. Calls follow the shape of the dose curve; as a rule, active = well fitted inhibition curve with a large enough effect; inconclusive = small, poorly fitted or top-dose-only effect, or another doubt; inactive = no such curve, though single readings can be large or run the other way. A potency beside an inconclusive call is a rough fit, not a confirmed value.

biological target: DNA polymerase eta (Homo sapiens) (UniProt Q9Y253); assay: qHTS for Inhibitors of Polymerase Eta; details: recombinant Pol eta, fluorescent DNA replication assay; series mostly up to 114 µM; activity change, negative = inhibition: at the top concentration
Sequence of UniProt Q9Y253 (Q9Y253 whole entry, looked up): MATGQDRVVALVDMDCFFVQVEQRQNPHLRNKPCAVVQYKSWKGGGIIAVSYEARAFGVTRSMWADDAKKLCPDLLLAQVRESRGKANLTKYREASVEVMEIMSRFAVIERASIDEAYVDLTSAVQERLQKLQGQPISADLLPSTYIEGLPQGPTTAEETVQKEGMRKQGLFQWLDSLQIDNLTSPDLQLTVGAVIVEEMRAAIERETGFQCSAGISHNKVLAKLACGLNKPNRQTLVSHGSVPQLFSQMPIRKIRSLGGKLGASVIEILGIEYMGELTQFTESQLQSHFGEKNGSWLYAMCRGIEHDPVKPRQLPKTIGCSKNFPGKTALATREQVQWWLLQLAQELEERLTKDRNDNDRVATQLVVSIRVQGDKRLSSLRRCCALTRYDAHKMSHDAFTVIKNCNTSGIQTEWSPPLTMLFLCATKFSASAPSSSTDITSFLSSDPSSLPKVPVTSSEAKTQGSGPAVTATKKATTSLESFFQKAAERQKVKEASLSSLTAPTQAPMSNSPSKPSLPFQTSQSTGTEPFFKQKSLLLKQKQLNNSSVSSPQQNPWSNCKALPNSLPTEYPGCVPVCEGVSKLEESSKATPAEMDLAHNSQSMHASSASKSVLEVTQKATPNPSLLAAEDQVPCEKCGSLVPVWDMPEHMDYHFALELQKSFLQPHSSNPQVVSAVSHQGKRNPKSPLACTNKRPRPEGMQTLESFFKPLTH
In short: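 Fluorescent replication assay: 50 nM final substrate added after a 15 min room-temperature compound preincubation with 10 nM enzyme. Signal taken at 0 min and again at 10 min.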
% is scaled to controls: 0 for no effect and ±100 for the full control effect; potency is read from the fitted curve at half-maximal effect; tags tell the direction and shape of the fitted curve.

Row | SMILES | Potency | activity change, negative = inhibition
1 | Cc1nnc(NC(=O)CSc2nc3c([nH]c4ccccc43)c(=O)n2-c2ccc(Cl)cc2)s1 | inconclusive: 89.1 µM [inhibitor, single point] | –
2 | Cc1cc(C)cc(OCC(O)CN2CCC(CN3C(=O)c4cccc5cccc(c45)C3=O)CC2)c1 (stereo unspecified) | inconclusive: 79.4 µM [inhibitor, partial curve, poor fit] | –
3 | CN(C(=O)COC(=O)c1nc(Cl)c(Cl)c(Cl)c1Cl)C1CCS(=O)(=O)C1 (stereo unspecified) | inconclusive: 25.1 µM [inhibitor, full curve, poor fit] | –
4 | C=CCn1c(SCC(=O)NC(=O)NCc2ccco2)nc2sc(CC)cc2c1=O | active: 11.2 µM | –
5 | COc1ccc2c(c1)sc1ncc(C(=O)NCc3ccc(Cl)cc3)c(=O)n12 | – | inactive: -1.03%
6 | CC1CCC(NC(=O)c2ccc3c(c2)N(Cc2ccccc2F)C(=O)c2ccccc2S3=O)CC1 (stereo unspecified) | – | inactive: -28.4%
7 | CN(C)C(=O)c1cc(C(=O)c2ccccc2C(F)(F)F)c[nH]1 | – | inactive: -15.1%
8 | O=C1NC(c2ccccc2)=N/C1=C/c1ccco1 | – | inactive: -13.5%
9 | COc1ccc(C2C(=O)N(C3CCCCC3)CC(=O)N2CCC2=CCCCC2)cc1 (stereo unspecified) | – | inactive: -2.33%
10 | Cc1ccc(Cl)cc1N1CCN(S(=O)(=O)c2c(C)noc2C)CC1 | inconclusive: 50.1 µM [inhibitor, partial curve, poor fit] | –
11 | CN(/N=C/c1cccnc1)c1cnn(-c2ccc(F)c(Cl)c2)c(=O)c1Cl | inconclusive: 12.6 µM [inhibitor, partial curve, poor fit] | –
12 | CSCCC(NC(=O)c1ccccc1Cl)C(=O)NC1CCN(Cc2ccccc2)CC1 (stereo unspecified) | – | inactive: -9.88%
13 | O=C1c2ccccc2C(=O)N1CCc1csc(NNc2nc(CCN3C(=O)c4ccccc4C3=O)cs2)n1 | inconclusive: 44.7 µM [inhibitor, partial curve, poor fit] | –
14 | O=C(CSc1ncnc2nc[nH]c12)Nc1nnc(SCc2ccc(Cl)c(Cl)c2)s1 | inconclusive: 89.1 µM [inhibitor, single point] | –
15 | COc1cccc(CNC(=O)c2ccc3nc(N4CCCCC4)sc3c2)c1OC | – | inactive: -14.6%
16 | NC(=O)C1CCN(C(=S)c2ccc(-c3ccc(Br)cc3)o2)CC1 | inconclusive: 35.5 µM [inhibitor, partial curve, poor fit] | –
17 | COc1cc(/C=C/C(=O)c2ccc(NS(=O)(=O)c3ccc(C)cc3)cc2)ccc1OC(F)F | inconclusive: 39.8 µM [inhibitor, partial curve, poor fit] | –
18 | COC/C=C/C1=CC2=CC(=O)C(C)(OC(=O)c3cnc4ccccc4n3)C(=O)C2=CN1c1ccc(OC)cc1 (stereo unspecified) | inconclusive: 50.1 µM [inhibitor, partial curve, poor fit] | –
19 | Cc1nn(Cc2ccc(Cl)cc2)c(C)c1NC(=O)C(c1ccccc1)c1ccccc1 | – | inactive: -10.8%
20 | O=C1NCCN(Cc2ccc(F)cc2)C1=O | – | inactive: -20.4%
21 | COc1ccccc1/C=c1\sc2nc(-c3ccco3)nn2c1=O | active: 8.91 µM | –
22 | O=C(CSc1ccncc1)Nc1ccc(S(=O)(=O)Nc2nccs2)cc1 | active: 17.8 µM | –

Row | SMILES | Potency | activity change, negative = inhibition
23 | CCOC(=O)c1cc2c(=O)n3ccccc3nc2n(Cc2ccco2)c1=NC(=O)c1cccnc1 | inconclusive: 17.8 µM [inhibitor, full curve, poor fit] | –
24 | CCOc1ccc(CC(=O)Nc2ccc(-c3ccc4nnc(C)n4n3)cc2)cc1 | inconclusive: 56.2 µM [inhibitor, partial curve, poor fit] | –
25 | N#C/C(=C/c1ccc(N2CCCCC2)o1)C(=O)NCCc1c[nH]c2ccccc12 | inconclusive: 35.5 µM [inhibitor, partial curve, poor fit] | –
26 | O=c1[nH]c(=O)n(C2OC(CO)C(O)C2O)cc1Br (stereo unspecified) | inconclusive: 89.1 µM [inhibitor, partial curve, poor fit] | –
27 | CCS(=O)(=O)N1Cc2ccccc2CC1C(=O)Nc1nnc(SCc2ccc(C#N)cc2)s1 (stereo unspecified) | inconclusive: 8.91 µM [inhibitor, full curve, poor fit] | –
28 | COc1ccc(-c2nnn(CC(=O)N(c3cccc(O)c3)C(C)C(=O)NC3CCCC3)n2)cc1OC (stereo unspecified) | inconclusive: 50.1 µM [inhibitor, partial curve] | –
29 | CCOc1cc(C2NN=C(c3ccc(C)cc3)S2)ccc1O (stereo unspecified) | inconclusive: 2 µM [inhibitor, full curve, poor fit] | –
30 | Cc1[nH]n(-c2ccccc2)c(=O)c1C(C[N+](=O)[O-])c1ccc(F)cc1 (stereo unspecified) | – | inactive: -20%
31 | O=C(N/N=C/c1ccccc1F)c1cc2c(ccc3ccccc32)o1 | inconclusive: 89.1 µM [inhibitor, partial curve, poor fit] | –
32 | C/C(=N\Nc1nnc2c3ccccc3n(C)c2n1)c1ccc(C)o1 | – | inactive: -26.1%
33 | O=C(O)c1cc(-c2cccc(Cl)c2)nc2nc(N3CCCCC3)sc12 | inconclusive: 22.4 µM [inhibitor, partial curve] | –
34 | CC(C)OC(=O)c1cc(-c2ccc(C=O)o2)ccc1Cl | inconclusive: 28.2 µM [inhibitor, single point] | –
35 | Cc1ccc(Sc2c(C)nn(C(=O)COc3ccccc3Br)c2C)cc1 | – | inactive: -5.09%
36 | CNNC(=S)Nc1cccc(SC)c1 | – | inactive: -15.2%
37 | O=C(O)CCc1ccc(-c2cccs2)o1 | active: 44.7 µM | –
38 | CCc1cc(=O)oc2c(CN3CCCC3)c(O)c(Cl)cc12 | – | inactive: -10.2%
39 | Fc1cccc(NC(=S)NNc2c3ccccc3nc3ccccc23)c1 | inconclusive: 56.2 µM [inhibitor, partial curve, poor fit] | –
40 | CC(C)n1c(O)c(/C=C2\C=NN=C2c2ccccc2)sc1=S | – | inactive: 0.572%
41 | Cc1cnn(C(=S)NCc2ccco2)c1 | inconclusive: 20 µM [inhibitor, full curve, poor fit] | –
42 | Cc1cccc(S(=O)(=O)C(C#N)c2nc3ccccc3nc2N2CCCC2)c1 (stereo unspecified) | inconclusive: 25.1 µM [inhibitor, single point] | –
43 | O=C(Nc1cccc(C(=O)OCc2cc(=O)n3nc(C4CC4)sc3n2)c1)c1ccccc1 | inconclusive: 100 µM [inhibitor, partial curve, poor fit] | –
44 | Cn1nc(N)c2ncc(-c3ccc(Cl)cc3)nc21 | – | inactive: -9.61%

Row | SMILES | Potency | activity change, negative = inhibition
45 | Cc1cc(Cl)ccc1NC(=S)NCCc1ccc(S(N)(=O)=O)cc1 | inconclusive: 39.8 µM [inhibitor, single point] | –
46 | Cc1c(C(=O)CN2CCOCC2)[nH]c2ccccc12 | inconclusive: 39.8 µM [inhibitor, partial curve, poor fit] | –
47 | Cc1occc1C(=O)NCc1ccc(C(=O)O)o1 | active: 56.2 µM | –
48 | Cc1ccc(S(=O)(=O)Cn2nnnc2C(CC(C)C)N2CCN(C(=O)c3ccco3)CC2)cc1 (stereo unspecified) | inconclusive: 89.1 µM [inhibitor, partial curve, poor fit] | –
49 | COc1ccccc1CNC(=O)c1ccc2c(c1)N(Cc1cccc(C)c1)C(=O)c1ccccc1S2(=O)=O | inconclusive: 79.4 µM [inhibitor, partial curve, poor fit] | –
50 | COc1ccc(NC(=O)Cn2nnc3sc4c(c3c2=O)CCC(C)C4)c(OC)c1 (stereo unspecified) | inconclusive: 56.2 µM [inhibitor, partial curve, poor fit] | –
51 | COc1ccc(NC(=O)/C(C#N)=C\c2ccc(Br)o2)cc1 | inconclusive: 50.1 µM [inhibitor, partial curve, poor fit] | –
52 | COc1ccc(N(S(=O)(=O)c2ccccc2)S(=O)(=O)c2ccccc2)c(N)c1 | inconclusive: 56.2 µM [inhibitor, partial curve, poor fit] | –
53 | Cc1c(CC(=O)N[C@@H](C)C(=O)O)c(=O)oc2cc3occ(-c4ccccc4)c3cc12 | inconclusive: 22.4 µM [inhibitor, full curve, poor fit] | –
54 | COc1ccc(NC2CCCN(C(=O)c3ccc4[nH]c(C)c(C)c4c3)C2)cc1 (stereo unspecified) | inconclusive: 79.4 µM [inhibitor, partial curve, poor fit] | –
55 | O=C(COC(=O)c1ccc(-c2nnc(-c3ccccc3)o2)cc1)c1ccccc1 | inconclusive: 8.91 µM [inhibitor, partial curve, poor fit] | –
56 | Cc1cc(Nc2cccc(C)c2C)n2cnnc2n1 | – | inactive: 9.39%
57 | COC(=O)c1ccc(CSc2ncnc3c2sc2nc(N4CCOCC4)c4c(c23)CCCC4)o1 | inconclusive: 17.8 µM [inhibitor, partial curve] | –
58 | COc1ccc(NC(=O)c2ccc(C#N)cc2)cc1NS(=O)(=O)c1ccc(F)cc1 | inconclusive: 28.2 µM [inhibitor, partial curve] | –
59 | Cc1ccc(CNC(=O)c2cc3c(C)nc4ccccc4c3o2)cc1 | inconclusive: 28.2 µM [inhibitor, partial curve, poor fit] | –
60 | COCC(C)n1c(C)cc(C(=O)COC(=O)/C=C/c2cccc(F)c2)c1C (stereo unspecified) | inconclusive: 79.4 µM [inhibitor, partial curve, poor fit] | –
61 | Cc1ccc(-n2cccc2/C=C2\C(=N)N3N=C(C(C)C)SC3=NC2=O)cc1 | – | inactive: -12.1%
62 | COc1ccc(CNC(=O)Cc2ccc(NC(=O)C3=C(C)OCCS3)cc2)cc1 | inconclusive: 22.4 µM [inhibitor, full curve] | –
63 | O=C(Cc1ccccc1[N+](=O)[O-])OCC(=O)c1c[nH]c2ccccc12 | inconclusive: 0.316 µM [inhibitor, full curve, poor fit] | –
64 | Cc1cccc(NC(=S)NNC(=O)CCn2cc(C)cn2)c1 | – | inactive: 11.1%
65 | CCOc1ccc(-c2nc(SCC(=O)Nc3ccc(C)c(C)c3)n3[nH]c(=O)cc3n2)cc1 | active: 50.1 µM | –
66 | NS(=O)(=O)c1ccc2nc(NC(=O)C3CCCO3)sc2c1 (stereo unspecified) | inconclusive: 25.1 µM [inhibitor, single point] | –
